Data from patent publication EP0622356A1, “Indoloylguanidine derivatives as inhibitors of sodium-hydrogen exchange” (SUMITOMO PHARMACEUTICALS COMPANY, LIMITED, priority 1993, dated 1994).
Where a name gives a salt, the structure may show the parent alone. At least one compound was matched to its structure with a doubt left.

target: T1, Na⁺/H⁺ exchanger (Rattus norvegicus, UniProt P26431); test: Inhibition of Na⁺/H⁺ exchanger activity in vitro (change in cell viability during acid loading); format: cell-based; conditions: minimum effective concentration; vascular smooth muscle cells isolated from the rat thoracic aorta; change in cell viability during acid loading
T1 construct: using the vascular smooth muscle cells isolated from the rat thoracic aorta; endogenous in cells; host or cells: primary vascular smooth muscle cells isolated from rat thoracic aorta
T1 sequence (P26431 whole entry): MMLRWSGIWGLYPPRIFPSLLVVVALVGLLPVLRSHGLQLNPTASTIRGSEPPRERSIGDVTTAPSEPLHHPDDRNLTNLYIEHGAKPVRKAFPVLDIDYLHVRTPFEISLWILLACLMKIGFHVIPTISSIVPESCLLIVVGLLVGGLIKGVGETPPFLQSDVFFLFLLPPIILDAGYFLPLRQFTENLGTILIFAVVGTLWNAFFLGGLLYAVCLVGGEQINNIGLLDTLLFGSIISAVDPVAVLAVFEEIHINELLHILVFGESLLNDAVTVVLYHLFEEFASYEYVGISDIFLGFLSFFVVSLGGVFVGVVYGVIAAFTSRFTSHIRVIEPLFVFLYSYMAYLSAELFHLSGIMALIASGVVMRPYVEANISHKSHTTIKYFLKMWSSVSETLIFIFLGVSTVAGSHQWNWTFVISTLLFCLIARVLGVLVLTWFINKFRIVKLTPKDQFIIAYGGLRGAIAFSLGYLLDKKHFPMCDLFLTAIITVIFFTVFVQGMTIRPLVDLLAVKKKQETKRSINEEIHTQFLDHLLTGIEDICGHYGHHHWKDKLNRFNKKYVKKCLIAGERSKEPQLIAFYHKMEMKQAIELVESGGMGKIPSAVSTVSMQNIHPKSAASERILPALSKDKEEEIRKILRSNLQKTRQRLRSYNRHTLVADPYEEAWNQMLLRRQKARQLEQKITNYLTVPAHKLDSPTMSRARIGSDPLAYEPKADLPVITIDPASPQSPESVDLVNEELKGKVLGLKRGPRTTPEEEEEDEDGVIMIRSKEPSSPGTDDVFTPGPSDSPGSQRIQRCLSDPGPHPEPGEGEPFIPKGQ

Which “Inhibition of Na^+/H^+ Exchanger MEC” value does the source give for Cn1c(C(=O)N=C(N)N)cc2cccc(NC(=O)CCc3ccccc3)c21 [Example 112, 1-Methyl-7-(3-phenylpropionamido)-2-indoloylguanidine hydrochloride] here?
The value was >10 µM.

With Cn1c(C(=O)N=C(N)N)cc2ccc(NC(=O)CCc3ccccc3)cc21 [Example 113, 1-Methyl-6-(3-phenylpropionamido)-2-indoloylguanidine hydrochloride] as the compound, how does the “Inhibition of Na^+/H^+ Exchanger MEC” value read?
The value was 3.0 µM.

For NCCCn1c(C(=O)N=C(N)N)cc2ccccc21 [Example 114, 1-(3-aminopropyl)-2-indoloylguanidine hydrochloride], which “Inhibition of Na^+/H^+ Exchanger MEC” value is on record?
The value was 1.0 µM.

How did the “Inhibition of Na^+/H^+ Exchanger MEC” value turn out when NCCn1c(C(=O)N=C(N)N)cc2ccccc21 [Example 115, 1-(2-Aminoethyl)-2-indoloylguanidine hydrochloride] was run?
The value was >10 µM.

With Cn1c(C(=O)N=C(N)N)cc2c(CN)cccc21 [Example 116, 4-aminomethyl-1-methyl-2-indoloylguanidine] as the compound, how does the “Inhibition of Na^+/H^+ Exchanger MEC” value read?
The value was >10 µM.

With Cn1c(C(=O)N=C(N)N)cc2cccc(OCCCN)c21 [Example 117, 7-(3-Aminopropoxy)-1-methyl-2-indoloylguanidine hydrochloride] as the compound, how does the “Inhibition of Na^+/H^+ Exchanger MEC” value read?
The value was 0.3 µM.

With Cn1c(C(=O)N=C(N)N)cc2c(Cl)ccc(OCCCN)c21 [Example 118, 7-(3-Aminopropoxy)-4-chloro-1-methyl-2-indoloylguanidine hydrochloride] as the compound, how does the “Inhibition of Na^+/H^+ Exchanger MEC” value read?
Its value is 0.01 µM.

How did the “Inhibition of Na^+/H^+ Exchanger MEC” value turn out when Cn1c(C(=O)N=C(N)N)cc2ccc(OCCCN)cc21 [Example 119, 6-(3-Aminopropoxy)-1-methyl-2-indoloylguanidine hydrochloride] was run?
The value was 0.1 µM.

With NCCCn1c(C(=O)N=C(N)N)cc2c(Cl)cccc21 [Example 120, 1-(3-Aminopropyl)-4-chloro-2-indoloylguanidine hydrochloride] as the compound, how does the “Inhibition of Na^+/H^+ Exchanger MEC” value read?
The value was 0.1 µM.

For Cn1c(C(=O)N=C(N)N)cc2c(Cl)ccc(OCCN)c21 [Example 121, 7-(2-Aminoethoxy)-4-chloro-1-methyl-2-indoloylguanidine hydrochloride], which “Inhibition of Na^+/H^+ Exchanger MEC” value is on record?
The value was 0.1 µM.

For Cn1c(C(=O)N=C(N)N)cc2c(Cl)cc(OCCCN)cc21 [Example 122, 6-(3-Aminopropoxy)-4-chloro-1-methyl-2-indoloylguanidine hydrochloride], which “Inhibition of Na^+/H^+ Exchanger MEC” value is on record?
The value was 0.03 µM.

How did the “Inhibition of Na^+/H^+ Exchanger MEC” value turn out when Cn1c(C(=O)N=C(N)N)cc2c(CO)cccc21 [Example 123, 4-hydroxymethyl-1-methyl-2-indoloylguanidine] was run?
Its value is 3.0 µM.

How did the “Inhibition of Na^+/H^+ Exchanger MEC” value turn out when Cn1c(C(=O)N=C(N)N)cc2cccc(OCCO)c21 [Example 124, 7-(2-Hydroxyethoxy)-1-methyl-2-indoloylguanidine hydrochloride] was run?
Its value is 0.3 µM.

Which “Inhibition of Na^+/H^+ Exchanger MEC” value does the source give for Cn1c(C(=O)N=C(N)N)cc2c(Cl)ccc(OCCO)c21 [Example 125, 4-Chloro-7-(2-hydroxyethoxy)-1-methyl-2-indoloylguanidine hydrochloride] here?
Its value is 0.01 µM.

With Cn1c(C(=O)N=C(N)N)cc2ccc(OCCO)cc21 [Example 126, 6-(2-Hydroxyethoxy)-1-methyl-2-indoloylguanidine hydrochloride] as the compound, how does the “Inhibition of Na^+/H^+ Exchanger MEC” value read?
The value was 0.3 µM.

For Cn1c(C(=O)N=C(N)N)cc2c(Cl)ccc(OCC(O)CO)c21 (centres unmarked) [Example 127, 4-Chloro-7-(2,3-dihydroxypropoxy)-1-methyl-2-indoloylguanidine hydrochloride], which “Inhibition of Na^+/H^+ Exchanger MEC” value is on record?
Its value is 0.1 µM.

For Cn1c(C(=O)N=C(N)N)cc2c(Cl)ccc(OCCCO)c21 [Example 128, 4-Chloro-7-(3-hydroxypropoxy)-1-methyl-2-indoloylguanidine hydrochloride], which “Inhibition of Na^+/H^+ Exchanger MEC” value is on record?
Its value is 0.03 µM.

Cn1c(C(=O)N=C(N)N)cc2c(Cl)ccc(OCCCCO)c21 [Example 129, 4-Chloro-7-(4-hydroxybutoxy)-1-methyl-2-indoloylguanidine hydrochloride] was tested. Which “Inhibition of Na^+/H^+ Exchanger MEC” value did it give?
The value was 0.03 µM.

With NC(N)=NC(=O)c1cc2c(Cl)cccc2n1CCCO [Example 130, 4-Chloro-1-(3-hydroxypropyl)-2-indoloylguanidine hydrochloride] as the compound, how does the “Inhibition of Na^+/H^+ Exchanger MEC” value read?
The value was 0.03 µM.

Which “Inhibition of Na^+/H^+ Exchanger MEC” value does the source give for NC(N)=NC(=O)c1cc2c(Cl)cccc2n1CCCCO [Example 131, 4-Chloro-1-(4-hydroxybutyl)-2-indoloylguanidine hydrochloride] here?
Its value is 0.1 µM.

With Cn1c(C(=O)N=C(N)N)cc2c(Cl)cc(OCCO)cc21 [Example 132, 4-Chloro-6-(2-hydroxyethoxy)-1-methyl-2-indoloylguanidine hydrochloride] as the compound, how does the “Inhibition of Na^+/H^+ Exchanger MEC” value read?
The value was 0.1 µM.

NC(N)=NC(=O)c1cc2ccccc2n1CCC(O)CO (centres unmarked) [Example 133, 1-(3,4-Dihydroxybutyl)-2-indoloylguanidine hydrochloride] was tested. Which “Inhibition of Na^+/H^+ Exchanger MEC” value did it give?
The value was 1.0 µM.

How did the “Inhibition of Na^+/H^+ Exchanger MEC” value turn out when NC(N)=NC(=O)c1cc2ccccc2n1CCC(=O)O [Example 134, 1-(2-carboxyethyl)-2-indoloylguanidine] was run?
The value was 0.3 µM.

How did the “Inhibition of Na^+/H^+ Exchanger MEC” value turn out when Cn1c(C(=O)N=C(N)N)cc2c(Cl)ccc(OCC(=O)O)c21 [Example 135, 7-carboxymethoxy-4-chloro-1-methyl-2-indoloylguanidine hydrochloride] was run?
The value was 0.1 µM.

How did the “Inhibition of Na^+/H^+ Exchanger MEC” value turn out when Cn1c(C(=O)N=C(N)N)cc2cccc(OCC(=O)O)c21 [Example 136, 7-Carboxymethoxy-1-methyl-2-indoloylguanidine hydrochloride] was run?
Its value is 1.0 µM.

Cn1c(C(=O)N=C(N)N)cc2ccc(OCC(=O)O)cc21 [Example 137, 6-Carboxymethoxy-1-methyl-2-indoloylguanidine hydrochloride] was tested. Which “Inhibition of Na^+/H^+ Exchanger MEC” value did it give?
The value was >1 µM.

With Cn1c(C(=O)N=C(N)N)cc2cccc(NCCc3ccccc3)c21 [Example 138, 1-methyl-7-(2-phenylethylamino)-2-indoloylguanidine hydrochloride] as the compound, how does the “Inhibition of Na^+/H^+ Exchanger MEC” value read?
The value was 3.0 µM.

Which “Inhibition of Na^+/H^+ Exchanger MEC” value does the source give for Cn1c(C(=O)N=C(N)N)cc2ccc(NCCc3ccccc3)cc21 [Example 139, 1-Methyl-6-(2-phenylethylamino)-2-indoloylguanidine hydrochloride] here?
Its value is 3.0 µM.

NCCCn1c(C(=O)N=C(N)N)cc2c(C(F)(F)F)cccc21 [Example 140, 1-(3-aminopropyl)-4-trifluoromethyl-2-indoloylguanidine hydrochloride] was tested. Which “Inhibition of Na^+/H^+ Exchanger MEC” value did it give?
Its value is 1.0 µM.
